Measurements taken from the supplement of paper PMC4166925.
± gives the standard deviation of the averaged measurements. In all, about 33,000 sequences were measured (“E-score (dimensionless, -0.5 to 0.5)”: median about -0.046, highest 2% from about 0.36 on). This is one part of the list.

tested on: T1, SpTbr T-box DNA-binding domain (GST fusion); test: PBM E-score of 8-mer (E-score (dimensionless, -0.5 to 0.5)); Tbr is Tbrain of the sea star Patiria miniata (Pm) or the sea urchin Strongylocentrotus purpuratus (Sp); higher = stronger binding preference; most listed sequences are background and not binding sites; settings: the construct has about 5 more residues each side
T1 sequence: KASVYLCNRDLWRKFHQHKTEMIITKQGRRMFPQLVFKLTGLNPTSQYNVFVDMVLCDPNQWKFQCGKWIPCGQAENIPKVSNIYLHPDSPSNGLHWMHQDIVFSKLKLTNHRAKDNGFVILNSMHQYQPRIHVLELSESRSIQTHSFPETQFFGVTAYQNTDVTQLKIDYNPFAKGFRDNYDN
In short: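 Using the Universal PBM Analysis Suite, every ungapped 8-mer received an enrichment E-score averaged over duplicate arrays. Probe intensities came from double-stranded Universal Agilent oligonucleotide arrays incubated with 200 nM GST-fused Tbr T-box DNA-binding domain in PBS (pH 7.5). That protein was expressed in BL21 E. coli at 20 °C and purified by glutathione affinity chromatography.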

Row | Sequence | PBM E-score of 8-mer
1 | AAGACCGC | 0.0751 ± 0.011
2 | ACCAACTA | -0.043 ± 0.023
3 | TCCGGAGA | -0.106 ± 0.094
4 | CATCATCG | -0.00997 ± 0.002
5 | CCACCTAG | 0.183 ± 0.046
6 | AACTGGAC | 0.0345 ± 0.029
7 | ATACGCAA | -0.0704 ± 0.069
8 | ACTGGGGA | -0.0213 ± 0.078
9 | AGTCTTGA | -0.0994 ± 0.071
10 | AAGAAGCG | 0.161 ± 0.022
11 | CGATTCAC | 0.262 ± 0.0081
12 | AGGACACG | 0.0227 ± 0.067
13 | AATTATCA | 0.0178 ± 0.079
14 | GAACGAGC | -0.187 ± 0.063
15 | AGGGTCGC | 0.165 ± 0.069
16 | AATAAGCA | -0.132 ± 0.012
17 | CCGGGCTC | -0.245 ± 0.051
18 | ACGCCAAG | 0.152 ± 0.016
19 | GCGGGAAC | 0.154 ± 0.044
20 | GATGGTGA | 0.166 ± 0.016
21 | CCCACCAC | -0.00552 ± 0.018
22 | AACCTCCA | -0.135 ± 0.018

Row | Sequence | PBM E-score of 8-mer
23 | GACTGCGA | 0.233 ± 0.014
24 | CTAACGTC | -0.167 ± 0.075
25 | CGCTGGAG | -0.131 ± 0.076
26 | CACGAACG | 0.209 ± 0.0028
27 | ACCGCCTG | 0.0532 ± 0.17
28 | ATCTACCA | -0.109 ± 0.05
29 | GAGTGACA | 0.343 ± 0.033
30 | GAGGACTA | -0.245 ± 0.032
31 | ATGCCTAA | 0.0456 ± 0.0037
32 | GCTGCTGA | -0.0776 ± 0.019
33 | AGAAAGAA | -0.3 ± 0.047
34 | AACCCCAG | -0.409 ± 0.028
35 | AACTGCGA | 0.3505 ± 0.00075
36 | ATTTTTCC | -0.0034 ± 0.048
37 | CTGGAAGA | -0.226 ± 0.031
38 | AACCCCCG | 0.0678 ± 0.0062
39 | TAGATAGA | -0.172 ± 0.026
40 | TCATTCGA | -0.131 ± 0.047
41 | CCAACGCC | 0.209 ± 0.035
42 | ATTGCAAC | -0.00473 ± 0.1
43 | AAACCGGG | -0.0969 ± 0.033
44 | CAAGCTGG | 0.165 ± 0.064

Row | Sequence | PBM E-score of 8-mer
45 | CTAGTTCA | 0.0716 ± 0.0071
46 | AGGGATAG | -0.249 ± 0.047
47 | AGATCGGC | -0.216 ± 0.086
48 | TACTGATA | -0.132 ± 0.053
49 | AGTCACAC | 0.457 ± 0.0049
50 | CTTTTTGC | -0.00587 ± 0.064
51 | AGATGTAG | -0.216 ± 0.055
52 | ATTTAGAC | -0.135 ± 0.03
53 | GCGCGTAA | 0.229 ± 0.035
54 | AAAGAACC | -0.141 ± 0.034
55 | GCAGCGTA | -0.0308 ± 0.041
56 | AAAGGCCT | -0.199 ± 0.026
57 | AACTTTCA | -0.00941 ± 0.039
58 | GCTCTCCA | -0.0369 ± 0.0074
59 | CTGACCGA | -0.122 ± 0.11
60 | ACGGAGAC | -0.153 ± 0.02
61 | GCTAGCGA | 0.156 ± 0.022
62 | ACAAAGCG | 0.116 ± 0.0068
63 | GATTAACA | 0.295 ± 0.037
64 | ACCGAACC | -0.0373 ± 0.023
65 | ATGCTAGA | -0.161 ± 0.01
66 | GGCGTATA | 0.0846 ± 0.081

Row | Sequence | PBM E-score of 8-mer
67 | AAGTTATA | 0.131 ± 0.023
68 | ACAGCCGT | 0.101 ± 0.05
69 | CGTAGGAA | -0.00351 ± 0.079
70 | ATTAGCAG | 0.0716 ± 0.046
71 | AGTTTCGA | -0.271 ± 0.053
72 | CCATTGGC | -0.0911 ± 0.064
73 | TCATTAGA | -0.165 ± 0.049
74 | AGACCTGG | -0.344 ± 0.024
75 | ATTACTAC | -0.128 ± 0.0091
76 | TCGCGCCA | 0.384 ± 0.009
77 | ATGGATGG | -0.312 ± 0.036
78 | CGGCTCGA | 0.0256 ± 0.046
79 | ATTACCGG | -0.104 ± 0.0043
80 | TCTAGTAA | -0.189 ± 0.083
81 | CATCCTGG | -0.0597 ± 0.01
82 | ACTCGGGC | -0.179 ± 0.093
83 | ATTTCCCC | -0.118 ± 0.0099
84 | GATGCACA | 0.077 ± 0.0073
85 | GTTGTCGA | 0.271 ± 0.0066
86 | ATGATGTA | -0.12 ± 0.017
